Source: PubChem BioAssay AID1508624 (National Center for Advancing Translational Sciences (NCATS), 2021)
About 120 (0.25%) of roughly 48,000 compounds were called active. Inconclusive results (about 4%) are left out. The call rests on the fitted dose curve; in most records, active means well fitted activation curve with a large enough effect; inconclusive means small, poorly fitted or top-dose-only effect, or another doubt; inactive means no such curve, though single readings can be large or run the other way. This is one part of the list.

Test: Primary qHTS for Identification of Small Molecule Activators of Huntingtin-Antisense Promoter Activity; further: nearly all actives have a fitted effect of over 55% in size
Conditions: HEK293 HTT-AS promoter firefly luciferase reporter, 24 h; series mostly up to 57.5 µM; activity change, positive = activation: at the top concentration
Summary of the method: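 Firefly luciferase readout (Dual-Glo, 10 min RT) after 24 h, 37 °C compound exposure (final up to 57.5 uM) of HEK293 reporter cells cultured 24 h beforehand; PTC124 at 50 uM final as control inhibitor; activity scaled vehicle 0%, zero RLU -100%.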

Activity change, positive = activation, inactive:
Cc1ccc(NC(=O)c2cn3c4c(ccc(Cl)c4c2=O)OC(C)C3)cc1C (stereo unspecified) 0.191%
COc1ccc(NC(=O)Cn2c(=O)n(-c3cccc(C)c3)c(=O)c3c2c2cc(C)ccc2n3C)cc1Cl -29.4%
CCOc1cc2sc(N3CCC(C(=O)Nc4ccccc4C(=O)OC)CC3)nc2cc1Br 15.1%
O=C(C1CCC(CNS(=O)(=O)c2ccc(Br)s2)CC1)N1CCN(c2ccccc2Cl)CC1 (stereo unspecified) -22.8%
CCOc1ccc(NC(=O)CN2C(=O)c3ccccc3Sc3ccc(C(=O)OC)cc32)cc1 -0.744%
Cc1ccc2c(c1)c(=O)c1ccccc1n2CCCC(=O)Nc1ccc(Cl)c(Cl)c1 -22.8%
Cc1cc(C)cc(-n2c(SCC(=O)NCc3ccc(F)cc3)nc3c([nH]c4ccccc43)c2=O)c1 -16.1%
COc1cc(NC(=O)CSc2nc(-c3ccccc3)no2)cc(OC)c1 -12.7%
COc1cccc(NC(=O)CN2C(=O)CC(c3ccco3)Sc3ccccc32)c1 (stereo unspecified) -28.9%
COC(=O)c1sc(-c2ccccc2)cc1NC(=O)c1cccc(Cl)c1 -7.97%
Cc1cccc(C)c1NC(=O)C(=O)NCC(c1cccnc1)N1CCc2ccccc21 (stereo unspecified) -28.1%
O=C(C1CCC(Cn2c(=O)c3sccc3n(Cc3ccccc3F)c2=O)CC1)N1CCOCC1 (stereo unspecified) -28.1%
CN(C)c1ccc(C(=C2C=CC(=[N+](C)C)C=C2)c2ccc(N(C)C)cc2)cc1
O=C(CSc1nc2c([nH]c3ccccc32)c(=O)n1-c1ccc(Cl)cc1)NC1CCCCC1 -45.6%
CCc1ccc(NC(=O)N2CCN(Cc3nc4ccc(C)cc4o3)CC2)cc1 -19.4%
CCCCNC(=O)Nc1ccc2c(c1)N(C)C(=O)c1ccccc1S2 -35.3%
CCN(CC)C(=O)CN1C(=O)COc2ccc(S(=O)(=O)N3CCOCC3)cc21 -3.7%
CC(=O)[C@H]1CC[C@H]2[C@@H]3CC=C4C[C@@H](O)CC[C@]4(C)[C@H]3CC[C@]12C
COc1ccc(CC2c3cc(OC)c(OC)cc3CC[N+]2(C)CCC(=O)OCCCCCOC(=O)CC[N+]2(C)CCc3cc(OC)c(OC)cc3C2Cc2ccc(OC)c(OC)c2)cc1OC (stereo unspecified) -8.26% [at 11.5 µM, percent change from vehicle, -100% = no light]
COc1ccc(NC(=O)Cn2nnc(C(=O)NCc3ccco3)c2N)c(OC)c1 -17.4%
Cc1cc(Nc2cccc(Br)c2)n2c(nc3ccccc32)c1C#N -21.3%
Cc1ccc(N2CCN(C(=O)c3cn(C)c4ccc(S(=O)(=O)N5CCCC5)cc4c3=O)CC2C)cc1 (stereo unspecified) -9.52%
CC(=O)Nc1ccc(S(=O)(=O)NCC2CCC(C(=O)NCc3ccccc3)CC2)cc1 (stereo unspecified) -14.6%
CCOc1cc(C(Nc2cc(C)ccn2)c2ccc3cccnc3c2O)ccc1OC (stereo unspecified) -39.1%
COc1ccc(N2CCN(S(=O)(=O)c3cc(Br)cc4c3N(C(=O)C3CC3)CC4)CC2)cc1 -22.5%
CC(C)(C)OC(=O)N1CCC(c2c(C(=O)N3CCN(c4ccccn4)CC3)cnn2-c2cccc(F)c2)CC1 0.782%
Cc1ccc(NC(=O)Cn2c(=O)n(Cc3ccco3)c(=O)c3sc4ccccc4c32)c(C)c1 -9.1%
COc1cc2c(=O)c(S(=O)(=O)c3ccc(C(C)C)cc3)cn(Cc3ccccc3C)c2cc1OC -28%
Cc1ccc(C(=O)NCC(c2ccco2)S(=O)(=O)c2ccccc2)cc1C (stereo unspecified) 2.29%
O=C(OCC(COC(=O)c1cccnc1)(COC(=O)c1cccnc1)COC(=O)c1cccnc1)c1cccnc1 -2.37%
CCOC(=O)c1c(C)c(-c2ccccc2)n(CC(=O)NCc2ccccc2)c1C -18.7%
CCOC(=O)c1ccc(NS(=O)(=O)c2ccc3c(c2)CCN3C(=O)CC)cc1 -29.9%
COc1ccc(OC)c(NC(=O)COCc2cc(-c3ccco3)on2)c1 -11.6%
O=C(CSc1nccn1Cc1ccccc1)Nc1nc2ccccc2s1 14.5%
Cc1cc(C)c(Cn2c(=O)n(Cc3ccccc3)c(=O)c3c(C)c(C)sc32)c(C)c1 14.3%
O=C(Nc1cccc(C(F)(F)F)c1)c1cc2nc(-c3ccco3)cc(C(F)(F)Cl)n2n1 1.33%
Cc1ccc(S(=O)(=O)c2nnn(CC(=O)Nc3ccccc3C)c2N)cc1 -12%
COc1ccc(-n2nc(C(=O)N3CCCCC3)c3c4ccccc4n(C)c3c2=O)cc1Cl -17.9%
CCOC(=O)c1cc(-c2ccccc2)n(CCC(=O)NCCc2ccc(C)cc2)c1C -35.8%
O=C(Nc1nc(-c2ccccc2)ns1)c1ccc(Cl)cc1 21.9%
CCOC(=O)c1c(NC(=O)c2ccc(S(=O)(=O)N(CC(C)C)CC(C)C)cc2)sc2c1CCN(CC)C2 -21.6%
CCOC(=O)N1CCc2c(sc(NCc3cccs3)c2C(=O)Nc2cc(Cl)ccc2OC)C1 -10.1%
CCN(CC)c1ccc(NC(=O)C2CCN(S(=O)(=O)c3ccc4c(c3)oc(=O)n4C)CC2)c(C)c1 -21.6%
CC(C(=O)O)c1ccc2c(c1)CC(=O)c1ccccc1S2 (stereo unspecified)
Cc1cccc(NC(=O)C(NS(=O)(=O)c2cccc3nsnc23)c2ccccc2)c1C (stereo unspecified) -0.228%
COc1ccccc1N1CCN(C(=O)c2ccc3c(c2)N(Cc2cc(C)ccc2C)C(=O)c2ccccc2S3(=O)=O)CC1 -29.2%
COc1ccc(CN(C(=O)c2cc(=O)c3ccccc3o2)C2CCS(=O)(=O)C2)cc1OC (stereo unspecified) 0%
Cc1nc(Nc2ncc(C(=O)Nc3c(C)cccc3Cl)s2)cc(N2CCN(CCO)CC2)n1
CC(=O)OCC(=O)[C@@]1(O)CC[C@H]2[C@@H]3CCC4=CC(=O)CC[C@]4(C)[C@@H]3C(=O)C[C@@]21C -0.653%
Cc1ccccc1OCCSc1nnc(-c2cccs2)o1 32.3%
Cc1ccc(NC(=O)Cn2c(=O)n(CCC(C)C)c(=O)c3cccnc32)cc1C -16%
CCC(C(=O)NCCC(C)C)N(C(=O)Cn1nnc(-c2ccc(C)cc2)n1)c1cccc(O)c1 (stereo unspecified) -38.6%
COc1ccc(Cl)cc1NC(=O)Cn1c(=O)n(Cc2ccc(F)cc2)c(=O)c2cccnc21 -27.8%
CCN(CCO)CCCC(C)Nc1ccnc2cc(Cl)ccc12 (stereo unspecified)
CC1CN(C(=O)N2CCC(C(=O)NCc3ccccc3F)CC2)c2cc(Cl)ccc2O1 (stereo unspecified) -20%
COc1ccccc1N1CCN(C(=O)Cn2c(=O)nc(-c3ccccc3)c3ccccc32)CC1 -47.9%
CCOc1ccc(NC(=O)C(C)n2c(=O)cc(-c3ccccc3)c3c(C)nn(C)c32)cc1 (stereo unspecified) 2.44%
COc1cc(N2CCC(N3CCN(C)CC3)CC2)ccc1Nc1ncnc(Nc2ccccc2S(=O)(=O)C(C)C)n1 -37.6%
CCOC(=O)c1ccc(NC(=O)C2=C(C)C(=O)OC23CCN(C(C)=O)CC3)cc1 -14.1%
Cc1ccc(Cl)cc1NC(=O)CCn1cnc2ccccc2c1=O -4.74%
COc1cc(Nc2nc3ccc(Cl)cc3nc2-n2nc(C)cc2C)cc(OC)c1 -11%
CCOC(=O)c1cccc(NC(=O)c2cc(C)nc3c2c(C)nn3-c2ccc(C)cc2)c1 -24.5%
O=C(CN1C(=O)COc2ccc(S(=O)(=O)NC3CCCC3)cc21)NCc1ccccc1Cl -12%
CCc1cccc(C)c1NC(=O)CSc1n[nH]c(-c2ccccc2)n1 -32.3%
Cn1ncc2c(Nc3cccc(C#N)c3)ncnc21 2.89%
Cc1cc(C)cc(NC(=O)C(=O)NCC(c2cccnc2)N2CCOCC2)c1 (stereo unspecified) -23.8%
CCOC(=O)c1c(CSc2ccccc2)n(C)c2cc(Br)c(O)c(CN(C)C)c12 -15.2%
COc1ccc(NC(=O)C(NS(=O)(=O)c2cccc3nsnc23)C(C)C)cc1OC (stereo unspecified) -3.41%
COc1ccc(-c2nc(S(=O)(=O)c3ccccc3)c(N3CCC(C)CC3)o2)cc1 4.84%
CN1C(=O)c2ccccc2Sc2ccc(NC(=O)N3CCN(c4ccc(F)cc4)CC3)cc21 -77.2%
CCN1CCN(Cc2ccc(-c3cc4c(N[C@H](C)c5ccccc5)ncnc4[nH]3)cc2)CC1 -37.8%
CCOc1ccc(CNC(=O)c2cc3cc(S(=O)(=O)N4CCCCC4)ccc3n2C)cc1 -47.7%
Cc1ccn(-c2ccc(-c3ncco3)cc2)c(=O)c1-c1ccc2nc(N)ncc2c1 -21.7%
Oc1ccc(NCc2ccccc2OCc2ccccc2)cc1 -1.48%
O=C1c2ccccc2-[n+]2ccc3c([nH]c4ccccc43)c21 -92.6%
COc1ccc(C(=O)NCCc2csc(-c3ccc(Cl)cc3)n2)c(OC)c1 -23%
CSc1ccc(CCNC(=O)CN2C(=O)COc3ccc(S(=O)(=O)N4CCCCCC4)cc32)cc1 -37.4%
Cc1ccc(Cl)cc1-n1c(SCC(=O)NCc2ccccc2)nc2n[nH]c(C)c2c1=N -44.6%
CCOC(=O)c1c(C)[nH]c(C)c1S(=O)(=O)N1CCCC(C(=O)N2CCN(c3cccc(Cl)c3)CC2)C1 (stereo unspecified) 0%
COc1ccccc1C(=O)Nc1ccc(-c2cc(C(F)(F)F)nn2-c2ccccc2)cc1 -31.4%
COc1ccc(CCNC(=O)CN(c2ccccc2)S(=O)(=O)N(C)C)cc1 -12%
COc1ccccc1-c1nn(CCC(=O)Nc2ccccc2)c2nc(C)cc(C)c12 -11.8%
O=C(Nc1ccc(F)c(F)c1)C(c1ccccc1)N1Cc2ccccc2C1=O (stereo unspecified) -10.3%
CCN(CC)CCNC(=O)c1cc2c(-c3cccc(OC)c3)nn(C)c2s1 -2.65%
CCOc1ccccc1NC(=O)Cn1c(=O)n(CCCC(=O)NCc2ccc(C)cc2)c(=O)c2ccccc21 -9.07%
Cc1ccc(C(=O)N2CCN(CCc3ccncc3)CC2)cc1 -2.51%
Cc1ccc2[nH]cc(C(c3ccccc3)c3ccc(Cl)s3)c2c1 (stereo unspecified) -27.9%
Cc1nn(C(C)C(=O)NCc2ccco2)c(=O)c2nn(-c3ccccc3)c(C)c12 (stereo unspecified) 5.08%
COc1ccccc1OCC(=O)NCCS(=O)(=O)N1CCN(c2ccccc2OC)CC1 7.26%
Cc1cccc2sc(N(Cc3cccnc3)C(=O)c3ccco3)nc12 -1.03%
CN1CCCCC1CCN1c2ccccc2Sc2ccc(S(C)=O)cc21 (stereo unspecified) -4.11%
